# In the supplement of paper PMC8728848:
# The list shows a part of the results.
# B1: PX14379A-bvu-539-28-539 (Bacteroides vulgatus) (protein)
# chain: EPYSEIIEEDYVPTEADEIALLATTYSQLRFVMDWYGLFDLQEESGDVIVTPTRPNGWDDGGTYKQMHKHTWDNQQGQPQSIWDYCYKGIANANKILKRADEGFFTEESKPKVVAEVKGVRALWYSILCDTHGNIPIQTSFSEEVPVQSTRKQVFDFIINELKEVMPNLPTEVNKSTYGRLTQWGAKCLMARMYLNAGVYTGTPMWNECLEQCNDIINSGLFSLETNYTDIFKTENSGCVETIFAIPYDEVYNEGDNNGPVFGAHMKFLSSNSRKVFNMQTTPWGGSAANPQFINSYDPDDMRLKYTWLQGDQYSPDGVLITTFPNKLPSIYKTDTDDGYRVGKYEIKVGAKSLLSNDFPYFRYTEVLLMKAECLLRLGQNETEAAHIVSQIRERAFRESAHPEKATVDAAWLKGDTHINYGTLDEKGQIDDAGNTEVVELGGLYDEWGWEFAAEARRRTDMIRFGTYQKKSWFNHTPTANDLNGNSILFPIHLDHLNTNPNLQQNPGYAGK
# Key:
# Test in all cases: glycan array binding signal (z-score within array); higher = stronger binding
# Conditions in all cases: glycan notation: IUPAC condensed, linker removed
# [1] = biological target: GlcNAc(b1-3)Gal(b1-4)Glc
# Outline: (§1)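 Glycan array data came from 3228 arrays in the Consortium for Functional Glycomics database, and only arrays with an available protein sequence were kept. Glycan names were put into IUPAC-condensed notation, and columns mapping to the same glycan were averaged. The binding signal is a within-array Z-score, averaged across arrays of one protein sequence run at different concentrations or buffers and across linkers. A negative Z-score can be read as non-binding.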
# [2] = biological target: GlcNAc(b1-3)Gal(b1-4)GlcNAc
# Outline: as §1
# [3] = biological target: GlcNAc(b1-3)Gal(b1-4)GlcNAc(b1-2)Man(a1-3)[GlcNAc(b1-3)Gal(b1-4)GlcNAc(b1-2)Man(a1-6)]Man(b1-4)GlcNAc(b1-4)GlcNAc
# Outline: as §1
# [4] = biological target: GlcNAc(b1-3)Gal(b1-4)GlcNAc(b1-2)Man(a1-3)[GlcNAc(b1-3)Gal(b1-4)GlcNAc(b1-2)Man(a1-6)]Man(b1-4)GlcNAc(b1-4)[Fuc(a1-6)]GlcNAc
# Outline: as §1
# [5] = biological target: GlcNAc(b1-3)Gal(b1-4)GlcNAc(b1-2)[GlcNAc(b1-3)Gal(b1-4)GlcNAc(b1-6)]Man(a1-6)[GlcNAc(b1-3)Gal(b1-4)GlcNAc(b1-2)Man(a1-3)]Man(b1-4)GlcNAc(b1-4)GlcNAc
# Outline: as §1
# [6] = biological target: GlcNAc(b1-3)Gal(b1-4)GlcNAc(b1-3)Gal(b1-4)GlcNAc
# Outline: as §1
# [7] = biological target: GlcNAc(b1-3)Gal(b1-4)GlcNAc(b1-3)Gal(b1-4)GlcNAc(b1-2)Man(a1-3)[GlcNAc(b1-3)Gal(b1-4)GlcNAc(b1-3)Gal(b1-4)GlcNAc(b1-2)Man(a1-6)]Man(b1-4)GlcNAc(b1-4)GlcNAc
# Outline: as §1
# [8] = biological target: GlcNAc(b1-3)Gal(b1-4)GlcNAc(b1-3)Gal(b1-4)GlcNAc(b1-2)Man(a1-3)[GlcNAc(b1-3)Gal(b1-4)GlcNAc(b1-3)Gal(b1-4)GlcNAc(b1-2)Man(a1-6)]Man(b1-4)GlcNAc(b1-4)[Fuc(a1-6)]GlcNAc
# Outline: as §1
# [9] = biological target: GlcNAc(b1-3)Gal(b1-4)GlcNAc(b1-3)Gal(b1-4)GlcNAc(b1-2)[GlcNAc(b1-3)Gal(b1-4)GlcNAc(b1-3)Gal(b1-4)GlcNAc(b1-6)]Man(a1-6)[GlcNAc(b1-3)Gal(b1-4)GlcNAc(b1-3)Gal(b1-4)GlcNAc(b1-2)Man(a1-3)]Man(b1-4)GlcNAc(b1-4)[Fuc(a1-6)]GlcNAc
# Outline: as §1
# [10] = biological target: GlcNAc(b1-3)Gal(b1-4)GlcNAc(b1-3)Gal(b1-4)GlcNAc(b1-3)Gal(b1-4)GlcNAc(b1-2)Man(a1-3)[GlcNAc(b1-3)Gal(b1-4)GlcNAc(b1-3)Gal(b1-4)GlcNAc(b1-3)Gal(b1-4)GlcNAc(b1-2)Man(a1-6)]Man(b1-4)GlcNAc(b1-4)GlcNAc
# Outline: as §1
# [11] = biological target: GlcNAc(b1-3)Gal(b1-4)GlcNAc(b1-3)Gal(b1-4)GlcNAc(b1-3)Gal(b1-4)GlcNAc(b1-2)Man(a1-3)[GlcNAc(b1-3)Gal(b1-4)GlcNAc(b1-3)Gal(b1-4)GlcNAc(b1-3)Gal(b1-4)GlcNAc(b1-2)Man(a1-6)]Man(b1-4)GlcNAc(b1-4)[Fuc(a1-6)]GlcNAc
# Outline: as §1
# [12] = biological target: GlcNAc(b1-3)Gal(b1-4)GlcNAc(b1-3)Gal(b1-4)GlcNAc(b1-3)Gal(b1-4)GlcNAc(b1-2)[GlcNAc(b1-3)Gal(b1-4)GlcNAc(b1-3)Gal(b1-4)GlcNAc(b1-3)Gal(b1-4)GlcNAc(b1-6)]Man(a1-6)[GlcNAc(b1-3)Gal(b1-4)GlcNAc(b1-3)Gal(b1-4)GlcNAc(b1-3)Gal(b1-4)GlcNAc(b1-2)Man(a1-3)]Man(b1-4)GlcNAc(b1-4)[Fuc(a1-6)]GlcNAc
# Outline: as §1
# [13] = biological target: GlcNAc(b1-3)Gal(b1-4)GlcNAc(b1-3)Gal(b1-4)GlcNAc(b1-3)Gal(b1-4)GlcNAc(b1-3)Gal(b1-4)GlcNAc(b1-2)Man(a1-3)[GlcNAc(b1-3)Gal(b1-4)GlcNAc(b1-3)Gal(b1-4)GlcNAc(b1-3)Gal(b1-4)GlcNAc(b1-3)Gal(b1-4)GlcNAc(b1-2)Man(a1-6)]Man(b1-4)GlcNAc(b1-4)GlcNAc
# Outline: as §1
# [14] = biological target: GlcNAc(b1-3)Gal(b1-4)GlcNAc(b1-3)Gal(b1-4)GlcNAc(b1-3)Gal(b1-4)GlcNAc(b1-3)Gal(b1-4)GlcNAc(b1-2)Man(a1-3)[GlcNAc(b1-3)Gal(b1-4)GlcNAc(b1-3)Gal(b1-4)GlcNAc(b1-3)Gal(b1-4)GlcNAc(b1-3)Gal(b1-4)GlcNAc(b1-2)Man(a1-6)]Man(b1-4)GlcNAc(b1-4)[Fuc(a1-6)]GlcNAc
# Outline: as §1
# [15] = biological target: GlcNAc(b1-3)Gal(b1-4)GlcNAc(b1-3)Gal(b1-4)GlcNAc(b1-3)Gal(b1-4)GlcNAc(b1-3)Gal(b1-4)GlcNAc(b1-2)[GlcNAc(b1-3)Gal(b1-4)GlcNAc(b1-3)Gal(b1-4)GlcNAc(b1-3)Gal(b1-4)GlcNAc(b1-3)Gal(b1-4)GlcNAc(b1-6)]Man(a1-6)[GlcNAc(b1-3)Gal(b1-4)GlcNAc(b1-3)Gal(b1-4)GlcNAc(b1-3)Gal(b1-4)GlcNAc(b1-3)Gal(b1-4)GlcNAc(b1-2)Man(a1-3)]Man(b1-4)GlcNAc(b1-4)[Fuc(a1-6)]GlcNAc
# Outline: as §1
# [16] = biological target: GlcNAc(b1-3)Gal(b1-4)GlcNAc(b1-3)Gal(b1-4)GlcNAc(b1-3)GalNAc
# Outline: as §1
# [17] = biological target: GlcNAc(b1-3)Gal(b1-4)GlcNAc(b1-3)GalNAc
# Outline: as §1
# [18] = biological target: GlcNAc(b1-3)Gal(b1-4)GlcNAc(b1-3)[GlcNAc(b1-3)Gal(b1-4)GlcNAc(b1-3)]GalNAc
# Outline: as §1
# [19] = biological target: GlcNAc(b1-3)Gal(b1-4)GlcNAc(b1-6)[Gal(b1-3)]GalNAc
# Outline: as §1
# [20] = biological target: GlcNAc(b1-3)Gal(b1-4)GlcNAc(b1-6)[GlcNAc(b1-3)Gal(b1-3)]GalNAc
# Outline: as §1
# [21] = biological target: GlcNAc(b1-3)Gal(b1-4)GlcNAc(b1-6)[GlcNAc(b1-3)]Gal(b1-4)GlcNAc
# Outline: as §1
# [22] = biological target: GlcNAc(b1-3)GalNAc
# Outline: as §1
# [23] = biological target: GlcNAc(b1-3)Man
# Outline: as §1
# [24] = biological target: GlcNAc(b1-3)[GlcNAc(b1-4)][GlcNAc(b1-6)]GlcNAc
# Outline: as §1
# [25] = biological target: GlcNAc(b1-3)[GlcNAc(b1-6)]Gal(b1-4)GlcNAc
# Outline: as §1
# [26] = biological target: GlcNAc(b1-3)[GlcNAc(b1-6)]GalNAc
# Outline: as §1
# [27] = biological target: GlcNAc(b1-4)Gal(b1-4)GlcNAc
# Outline: as §1
# [28] = biological target: GlcNAc(b1-4)GlcNAc
# Outline: as §1
# [29] = biological target: GlcNAc(b1-4)GlcNAc(b1-4)GlcNAc
# Outline: as §1
# [30] = biological target: GlcNAc(b1-4)GlcNAc(b1-4)GlcNAc(b1-4)GlcNAc(b1-4)GlcNAc
# Outline: as §1
# [31] = biological target: GlcNAc(b1-4)GlcNAc(b1-4)GlcNAc(b1-4)GlcNAc(b1-4)GlcNAc(b1-4)GlcNAc
# Outline: as §1
# [32] = biological target: GlcNAc(b1-4)[GlcNAc(b1-6)]GalNAc
# Outline: as §1
# [33] = biological target: GlcNAc(b1-6)Gal(b1-4)GlcNAc
# Outline: as §1
# [34] = biological target: GlcNAc(b1-6)GalNAc
# Outline: as §1
# [35] = biological target: GlcNAc6S(b1-3)Gal(b1-4)GlcNAc
# Outline: as §1
# [36] = biological target: Kdn(a2-3)Gal(b1-3)GalNAc
# Outline: as §1
# [37] = biological target: Kdn(a2-3)Gal(b1-3)GlcNAc
# Outline: as §1
# [38] = biological target: Kdn(a2-3)Gal(b1-4)Glc
# Outline: as §1
# [39] = biological target: Kdn(a2-3)Gal(b1-4)GlcNAc
# Outline: as §1
# [40] = biological target: Kdn(a2-3)Gal(b1-4)[Fuc(a1-3)]GlcNAc
# Outline: as §1
# [41] = biological target: Kdn(a2-6)Gal(b1-4)GlcNAc
# Outline: as §1
# [42] = biological target: Man(a1-2)Man(a1-2)Man(a1-3)Man
# Outline: as §1
# [43] = biological target: Man(a1-2)Man(a1-2)Man(a1-6)[Man(a1-3)]Man
# Outline: as §1
# [44] = biological target: Man(a1-2)Man(a1-3)Man
# Outline: as §1
# [45] = biological target: Man(a1-2)Man(a1-3)[Man(a1-2)Man(a1-6)]Man
# Outline: as §1
binder,measurement,setting,value
B1,glycan array binding signal (z-score),[1],-0.32
same,glycan array binding signal (z-score),[2],-0.337
same,glycan array binding signal (z-score),[3],-0.12
same,glycan array binding signal (z-score),[4],-0.419
same,glycan array binding signal (z-score),[5],0.18
same,glycan array binding signal (z-score),[6],-0.297
same,glycan array binding signal (z-score),[7],1.08
same,glycan array binding signal (z-score),[8],0.202
same,glycan array binding signal (z-score),[9],-0.38
same,glycan array binding signal (z-score),[10],-0.121
same,glycan array binding signal (z-score),[11],0.526
same,glycan array binding signal (z-score),[12],-0.29
same,glycan array binding signal (z-score),[13],-0.11
same,glycan array binding signal (z-score),[14],3.83
same,glycan array binding signal (z-score),[15],0.006
same,glycan array binding signal (z-score),[16],-0.443
same,glycan array binding signal (z-score),[17],-0.209
same,glycan array binding signal (z-score),[18],-0.376
same,glycan array binding signal (z-score),[19],-0.068
same,glycan array binding signal (z-score),[20],0.142
same,glycan array binding signal (z-score),[21],-0.033
same,glycan array binding signal (z-score),[22],-0.386
same,glycan array binding signal (z-score),[23],-0.278
same,glycan array binding signal (z-score),[24],-0.135
same,glycan array binding signal (z-score),[25],-0.115
same,glycan array binding signal (z-score),[26],-0.185
same,glycan array binding signal (z-score),[27],-0.294
same,glycan array binding signal (z-score),[28],-0.24
same,glycan array binding signal (z-score),[29],-0.493
same,glycan array binding signal (z-score),[30],-0.624
same,glycan array binding signal (z-score),[31],-0.486
same,glycan array binding signal (z-score),[32],-0.239
same,glycan array binding signal (z-score),[33],0.374
same,glycan array binding signal (z-score),[34],0.423
same,glycan array binding signal (z-score),[35],-0.091
same,glycan array binding signal (z-score),[36],0.276
same,glycan array binding signal (z-score),[37],-0.356
same,glycan array binding signal (z-score),[38],-0.162
same,glycan array binding signal (z-score),[39],-0.652
same,glycan array binding signal (z-score),[40],0.162
same,glycan array binding signal (z-score),[41],-0.058
same,glycan array binding signal (z-score),[42],-0.44
same,glycan array binding signal (z-score),[43],-0.451
same,glycan array binding signal (z-score),[44],-0.335
same,glycan array binding signal (z-score),[45],-0.377
